# The supplement of paper PMC7826260
# This is one part of the list. One pool of 16,384 single-stranded DNAs met each Rep nickase domain in vitro at 3 µM enzyme and 37 °C for 1 h; the strands have 90 letters, of which the middle is given. Values are log2 of uncut reads against the no-enzyme pool; the lower, the more was cut; hits are not called. Reads are scaled to the total; where an enzyme cuts many sequences, the uncut ones exceed 0.
# Tests used:
# Experiment in all cases: uncleaved DNA left, log2 of reads against the no-enzyme library (log2 ratio); higher = less cleavage (more negative = more Rep cleavage of the k-mer); sequences stand for … in CTCGTCCG…ACCGGAGA
# [1] = test system: T1, Rep nickase domain of Muscovy duck circovirus
# T1 sequence (Rep 1-111, printed without the tag): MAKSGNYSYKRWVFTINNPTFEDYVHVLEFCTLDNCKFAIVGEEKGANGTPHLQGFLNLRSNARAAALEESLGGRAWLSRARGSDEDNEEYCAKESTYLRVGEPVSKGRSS
# Experimental: (§1)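 A pool of 90-nt single-stranded DNAs with seven random bases just before the constant AC of the nick site (name = the seven bases) was cut by 3 µM recombinant His6-SUMO-tagged Rep nickase domain (300 nM DNA, 50 mM HEPES pH 8.0, 50 mM NaCl, 1 mM MnCl2, 1 h, 37 °C, three replicates). Uncut DNA was amplified and sequenced.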
# [2] = test system: T2, Rep nickase domain of banana bunchy top virus
# T2 sequence (Rep 1-94, printed without the tag): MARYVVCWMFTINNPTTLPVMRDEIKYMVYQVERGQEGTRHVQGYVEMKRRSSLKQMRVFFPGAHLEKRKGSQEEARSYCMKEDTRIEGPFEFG
# Experimental: as §1
# [3] = test system: T3, Rep nickase domain of cabbage leaf curl virus
# T3 sequence (Rep 1-116, printed without the tag): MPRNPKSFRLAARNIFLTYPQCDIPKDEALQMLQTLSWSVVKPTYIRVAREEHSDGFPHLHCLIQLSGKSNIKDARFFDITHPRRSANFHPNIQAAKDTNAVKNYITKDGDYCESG
# Experimental: as §1
# [4] = test system: T4, Rep nickase domain of chickpea chlorotic dwarf virus
# T4 sequence (Rep 1-124, printed without the tag): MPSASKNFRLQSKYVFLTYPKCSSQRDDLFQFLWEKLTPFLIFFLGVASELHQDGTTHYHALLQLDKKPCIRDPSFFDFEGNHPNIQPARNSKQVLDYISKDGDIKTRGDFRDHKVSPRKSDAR
# Experimental: as §1
# [5] = test system: T5, Rep nickase domain of faba bean necrotic yellows virus
# T5 sequence (Rep 1-98, printed without the tag): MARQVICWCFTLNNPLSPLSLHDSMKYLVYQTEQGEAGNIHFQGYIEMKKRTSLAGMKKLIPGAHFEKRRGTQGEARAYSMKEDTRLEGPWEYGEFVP
# Experimental: as §1
# [6] = test system: T6, Rep nickase domain of maize striate mosaic virus
# T6 sequence (Rep 1-117, printed without the tag): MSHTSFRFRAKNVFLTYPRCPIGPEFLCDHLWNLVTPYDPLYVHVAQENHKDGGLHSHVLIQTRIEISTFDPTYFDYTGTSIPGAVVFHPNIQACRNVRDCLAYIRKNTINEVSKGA
# Experimental: as §1
# [7] = test system: T7, Rep nickase domain of porcine circovirus 2
# T7 sequence (Rep 2-116, printed without the tag): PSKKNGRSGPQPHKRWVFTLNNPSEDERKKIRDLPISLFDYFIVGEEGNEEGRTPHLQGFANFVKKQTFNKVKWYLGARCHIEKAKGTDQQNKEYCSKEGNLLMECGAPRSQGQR
# Experimental: as §1
# [8] = test system: T8, Rep nickase domain of tomato yellow leaf curl virus
# T8 sequence (Rep 1-136, printed without the tag): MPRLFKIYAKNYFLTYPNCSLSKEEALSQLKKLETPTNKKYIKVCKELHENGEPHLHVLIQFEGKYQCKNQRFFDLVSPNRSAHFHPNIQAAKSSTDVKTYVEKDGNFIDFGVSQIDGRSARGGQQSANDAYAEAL
# Experimental: as §1
# [9] = test system: T9, Rep nickase domain of wheat dwarf virus
# T9 sequence (Rep 1-137, printed without the tag): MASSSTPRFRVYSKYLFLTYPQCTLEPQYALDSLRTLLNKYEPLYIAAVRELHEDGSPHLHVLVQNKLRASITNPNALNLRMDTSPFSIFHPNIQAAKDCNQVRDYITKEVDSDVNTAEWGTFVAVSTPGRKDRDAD
# Experimental: as §1
Sequence,uncleaved DNA left (log2) [1],uncleaved DNA left (log2) [2],uncleaved DNA left (log2) [3],uncleaved DNA left (log2) [4],uncleaved DNA left (log2) [5],uncleaved DNA left (log2) [6],uncleaved DNA left (log2) [7],uncleaved DNA left (log2) [8],uncleaved DNA left (log2) [9]
AGACGCG,0.0417,0.171,-0.578,0.49,0.139,-0.525,0.271,0.0406,0.0841
GAACAGA,0.119,0.15,0.67,1.41,-0.0702,1.68,0.231,0.103,0.203
TTCATAT,0.162,0.032,0.356,-0.35,0.136,-0.202,0.0272,0.114,0.102
AGCAGCG,0.0906,0.118,-0.874,-0.0684,0.14,-0.912,0.189,0.033,0.0584
CATCCGG,0.0899,0.109,0.38,1.17,0.0288,1.06,0.118,0.0176,0.0444
GAAGTTC,-0.0559,-0.052,0.223,-0.424,-0.171,0.58,-0.155,0.0741,0.00937
AGGACCG,-0.039,0.00367,-0.358,-0.0819,-0.0298,-0.569,0.143,-0.0636,-0.0725
TTCCTTG,0.114,0.0562,-0.428,-1.2,-0.013,-1.02,0.107,0.103,-0.00109
TCGCTAA,-0.0121,0.0498,0.0146,-0.309,0.0476,-0.487,-0.0935,-0.00576,0.00453
AGACAAT,0.0513,-0.0475,0.546,1.18,-0.0929,1.64,-0.139,-0.0429,0.156
AACAATG,-0.114,-0.00563,-0.38,-0.383,-0.0405,-0.857,0.106,-0.0152,-0.0213
CGGCTTG,-0.0613,-0.0353,-0.0689,0.518,0.024,1.4,0.0104,-0.0925,-0.0233
CCTGGGC,0.00757,-1.58e-05,0.0739,0.109,0.102,-0.32,0.0977,-0.0669,-0.00763
GTTTCTA,0.0641,0.109,0.385,0.94,0.0109,1.86,0.0617,0.0716,0.149
TACCCCT,-0.0197,-0.00522,-2.16,-2.71,-0.0467,-1.24,-2.02,-0.0594,-0.301
ATTTTAC,-1.28,0.0831,-0.355,-2.43,0.111,-0.869,-0.656,0.0226,0.0822

Sequence,uncleaved DNA left (log2) [1],uncleaved DNA left (log2) [2],uncleaved DNA left (log2) [3],uncleaved DNA left (log2) [4],uncleaved DNA left (log2) [5],uncleaved DNA left (log2) [6],uncleaved DNA left (log2) [7],uncleaved DNA left (log2) [8],uncleaved DNA left (log2) [9]
AGCGAGC,-0.0406,0.0531,-0.0777,0.346,0.0761,0.226,0.101,0.0198,0.0249
CGGTGAG,-0.0184,-0.0627,-0.779,-0.154,-0.0624,-0.614,0.083,0.148,-0.0445
GCGGTGA,-0.0067,-0.172,0.136,0.602,-0.101,0.675,0.0874,-0.134,0.012
AAGGGAG,-0.013,0.052,-0.113,0.342,0.0993,-0.569,0.253,0.0346,0.0992
ATACAGA,0.0563,-0.015,-0.156,-0.839,0.0587,-0.848,0.111,-0.0184,0.0365
TCGTAAT,-1.93,-0.274,-0.391,-1.4,-1.08,-0.151,-3.58,0.081,-0.152
GGTTAGA,0.0728,0.117,0.458,1.11,0.045,1.5,0.199,0.0403,0.19
TATTTCC,-2.57,-0.313,0.0783,-0.778,0.00709,-0.386,-0.489,0.0809,-0.0256
GAGGGCC,-0.0805,0.0622,0.503,1.09,-0.0175,1.64,0.21,0.0617,0.167
CAAGGCT,-0.0702,0.079,-0.101,-0.323,-0.0149,0.028,0.0786,-0.00904,0.129
AGTCGAT,-0.0416,0.045,0.249,0.809,0.132,1.25,-2,0.0536,0.13
AGTAGGA,0.0128,-0.0582,0.0874,0.383,0.0121,-0.293,0.119,-0.0522,-0.0737
GCGTTAA,-0.148,-0.0272,0.0484,0.151,-0.0321,0.214,0.0231,-0.015,-0.0511
CAGTGGA,0.0523,-0.11,-0.189,-0.206,-0.0674,-0.784,-2.56,-0.117,0.0529
AGTTGTC,0.0668,-0.06,-0.17,-0.164,0.0238,-0.927,-0.0459,0.0417,-0.116
CGTGGCC,-0.104,0.0474,-0.0629,0.349,-0.0383,-0.188,-0.112,-0.117,0.0144
